# Results as given in the supplement of paper PMC12217912.
# The list shows a part of the results. The full chains were built here from the parent and the listed change. Values near 0.05 are background.
# B1: TEV protease; numbered along this chain (parent)
# chain: MGESLFKGPRDYNPISSSICHLTNESDGHTTSLYGIGFGPFIITNKHLFRRNNGTLVVQSLHGVFKVKDTTTLQQHLVDGRDMIIIRMPKDFPPFPQKLKFREPQREERICLVTTNFQTKSMSSMVSDTSCTFPSGDGIFWKHWIQTKDGQCGSPLVSTRDGFIVGIHSASNFTNTNNYFTSVPKNFMELLTNQEAQQWVSGWRLNADSVLWGGHKVFMVKPEEPFQPVKEATQL
# Variants of: B1
# Assay: raw area under fraction-flipped curve 0-4 h after induction (AUC4h, not background-subtracted), DNA-recorder readout of cleavage of the substrate (dimensionless); higher = more cleavage of the substrate by the protease variant
# Conditions: temperature: 34 °C; time window: 0-4 h after rhamnose induction
# Protocol: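 In vivo DNA recorder in E. coli TOP10(DE3) ΔrhaA at 34 °C. Each TEVp single-site mutant (parent TEVp 0) is paired with a single-site variant of the 7-mer TEVs (canonical ENLYFQ|S). The substrate sits between flexible linkers in a Bxb1-sfGFP-TEVs-SsrA fusion, so cleavage stabilises Bxb1 and speeds flipping of a recombination array, read by NGS. The value is the raw area under the fraction-flipped curve over 0-4 h after rhamnose induction (AUC4h), with ≥20 reads per time point. It is not background-subtracted; inactive controls average about 0.047.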
# 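Further: Bxb1 expression induced with 0.2% (w/v) L-rhamnose at OD600 near 0.5, cultures sampled hourly, flipped fraction per protease–substrate barcode pair counted by paired-end Illumina sequencing.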
Variant,area with substrate ENLYFAS,area with substrate ENLYFCS,area with substrate ENLYFES,area with substrate ENLYFFS,area with substrate ENLYFIS,area with substrate ENLYFKS,area with substrate ENLYFMS,area with substrate ENLYFNS,area with substrate ENLYFPS,area with substrate ENLYFTS,area with substrate ENLYFVS,area with substrate ENLYFHS,area with substrate ENLYFRS,area with substrate ENLYFSS,area with substrate ENLYFYS,area with substrate ENLYFWS,area with substrate ENLYFDS,area with substrate ENLYFGS,area with substrate ENLYFLS
K142Q,0.0602,0.0496,0.0599,0.0617,0.0604,0.056,0.075,0.0594,0.0608,0.0792,0.0609,,,,,,,,
Q105H,0.0386,0.0819,0.064,0.0771,0.073,0.0292,,,0.0461,,0.0637,0.0422,0.0573,0.0537,,,,,
Q227F,0.0904,,,0.0729,0.0513,0.0587,0.0873,0.0362,0.0546,,,,0.0666,0.0586,0.0435,,,,
Q227R,0.053,0.0596,,,0.0595,,0.0656,,,0.0541,,0.0685,0.0685,,,0.065,,,
D27Y,0.0576,,0.0632,0.0605,0.0543,0.0589,0.0602,0.0626,0.0695,0.0595,,0.0422,0.0593,0.0559,0.0718,0.0719,0.0547,0.0619,0.0521
D27R,0.0728,0.051,0.0525,0.0524,0.052,,0.0786,0.0675,0.0651,0.0413,,0.0383,0.0586,0.0466,0.0443,0.0546,,0.0666,
A207D,0.0456,0.0546,0.0598,0.0739,0.0641,0.0679,0.0695,0.0602,0.0593,0.0564,0.0608,0.0687,,,0.0493,0.0609,,0.058,
F117W,0.0731,,,,,0.0633,0.0701,,0.0836,0.0644,,,,0.0657,0.0611,0.0549,0.0554,,
Q194M,0.0556,0.0511,0.0684,0.0686,,,0.0575,0.0629,0.0554,0.0606,,0.0539,0.0614,0.064,0.0659,0.0441,0.0555,,
K7N,0.0584,0.0234,0.0724,,0.0668,0.0637,0.0631,0.0685,0.0681,0.0595,,0.0666,,0.0637,,,0.0598,,
F41R,0.037,0.0268,0.0567,0.0596,0.05,0.0482,0.0561,0.0551,0.0544,0.053,,0.0677,,,,0.0314,0.0495,0.0485,
I167H,0.0761,0.0535,,0.0672,,,0.0456,0.0593,0.0443,,,,0.0539,,,,0.0266,,
R204A,0.0584,0.0622,0.0608,,0.0615,,0.0805,0.0827,0.0565,0.0695,0.0629,0.0114,,0.0281,0.0497,,,0.0675,
G138D,0.0476,,,,,,,,,0.0622,0.047,,,,,,,0.056,
N178T,0.0741,,0.0621,0.0614,0.0543,0.0732,0.0619,0.0604,0.0682,,0.0581,0.0557,,,0.0548,0.0504,,0.0526,
I139L,0.065,0.0852,,,0.0556,0.0635,0.0677,0.0724,0.0576,0.0653,0.0582,,0.0632,0.0583,0.0632,0.0375,,0.0572,0.0552
I139D,0.0589,0.0587,0.0771,0.0534,0.0566,0.0627,0.065,,0.0578,,0.0495,0.0159,,0.0662,0.0267,,,,
K221M,0.0684,,0.0584,0.0678,0.0592,0.039,0.0546,0.0572,0.0564,,0.0492,0.0605,0.053,,,,0.0673,0.0585,0.0608
V220L,0.0618,0.0612,0.0701,0.0472,0.0509,0.0576,0.0627,0.0654,0.0559,0.0513,0.0567,0.0447,0.0521,0.0586,0.0562,0.059,0.0708,,0.0553
A196Y,0.061,0.0656,0.0679,0.0882,0.0509,0.0657,,,,,,0.0585,,,,0.0449,0.0502,,0.0622
Q197F,0.0686,0.0616,0.056,0.0611,0.0572,0.0432,0.0775,0.0965,0.0577,,0.0535,0.0358,,0.0601,0.0578,0.0717,0.068,0.0666,
I86G,0.0512,0.0266,0.03,,,0.0335,0.0428,,0.0299,0.0452,,,0.0396,0.0465,0.0331,,,0.0432,
K120R,0.0651,0.0644,0.0669,0.0673,0.0611,,0.0412,0.0722,0.0571,0.0634,0.0518,0.0693,,0.0597,,0.0417,0.0602,0.0623,
Q59A,0.0556,0.0779,0.0587,0.0462,,,,,0.0591,,,,,,0.0837,,,,
Y12F,0.0674,0.0523,0.0564,0.0611,0.0536,,0.0669,0.0601,0.0627,0.0635,0.0522,,0.0658,0.0395,,0.0565,0.0593,,
K98Y,0.0619,0.0581,0.0652,,0.0547,0.0808,0.0795,0.0612,0.0609,0.056,0.065,0.0709,0.0669,0.0732,0.0657,,0.0575,0.0602,0.0619
I110P,0.0685,0.0574,0.0563,0.0586,0.0536,0.0551,,,,,,,,0.0608,,,,,
S16P,0.0694,0.0603,0.067,0.0684,0.0609,0.0369,0.0677,0.0618,0.0576,0.0516,,0.0818,0.064,0.0748,,,0.0565,,0.0686
